In patent US4334066A (priority 1981, dated 1982):
≈ marks a conversion by molar mass, not a printed value.

Test system: Anthracnose of cucumber (Colletotrichum lagenarium)
Assay: microbe, parasite or virus in culture
Conditions: Colletotrichum orbiculare, 48 h, read-out: Minimum Inhibitory Concentration

CCOC1C=C(CN2CCOCC2)C(=O)C(C(C)C)O1 (centres unmarked) [Compound 2, 6-isopropyl-2-ethoxy-4-morpholinomethyl-5-oxo-5,6-dihydro-2H-pyran]
MIC: 100 µg/mL (≈ 353 µM)

CCC1OC(OC)C=C(CN2CCNCC2)C1=O (centres unmarked) [Compound 1, 6-ethyl-2-methoxy-4-piperazinomethyl-5-oxo-5,6-dihydro-2H-pyran]
MIC: 50 µg/mL (≈ 197 µM)
